Results as given in PubChem BioAssay AID485281 (National Center for Advancing Translational Sciences (NCATS), 2010).
About 260 (0.074%) of roughly 350,000 compounds were called active. Inconclusive means that the source gave no clear call. Such entries were picked first, then a sample of the others. Calls come from the whole dose curve; as a rule, active = well fitted inhibition curve with a large enough effect; inconclusive = small, poorly fitted or top-dose-only effect; inactive = no such curve, though single readings can be large or run the other way. A potency beside an inconclusive call is a rough fit, not a confirmed value.

target: Ferritin light chain (Equus caballus) (UniProt P02791); assay: qHTS Assay for Identification of Novel General Anesthetics; settings: apoferritin/1-aminoanthracene competitive binding, fluorescence; series mostly up to 77.5 µM; note: nearly all actives have a fitted effect of over 20% in size
Procedure, shortened: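 Horse-spleen apoferritin (10 uM) was mixed with 50% saturated 1-aminoanthracene in PBS, exposed to compounds for 10 min at room temperature, and read for fluorescence (ex 380 nm, em 535 nm). Competitive displacement was fitted with a four-parameter Hill equation.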
Potency is the fitted concentration of half-maximal effect; tags give direction and shape of the fitted curve.

Sequence of UniProt P02791 (P02791 whole entry, looked up): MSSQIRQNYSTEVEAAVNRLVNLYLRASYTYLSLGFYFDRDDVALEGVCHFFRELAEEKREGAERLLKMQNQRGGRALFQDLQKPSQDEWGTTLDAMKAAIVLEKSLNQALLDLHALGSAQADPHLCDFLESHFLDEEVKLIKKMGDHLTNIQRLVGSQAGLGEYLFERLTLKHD

Potency, inactive:
Cc1ccc2c(c1)-c1cc(C)nn1C(c1sccc1C)N2 (centres undefined)
Cc1cc(C)c2ccc(/C=N/O)nc2c1O
CCOc1ccc(NS(=O)(=O)c2ccc(-c3cc(C)no3)s2)cc1
CCc1nc(-c2cc3ccc(C)cc3[nH]c2=O)no1
COc1cc(C(=O)Oc2ccc3ccc(O)cc3c2)cc(OC)c1OC
S=C(NCc1ccco1)N1CCN(Cc2ccco2)CC1
CCc1cccc(NC(=O)Cn2c(=O)ccc3cc(S(=O)(=O)N4CCC(C)CC4)ccc32)c1
CCc1ccc(CNc2ncnc3c2nc2n3CCCC2)cc1
Cc1c(O)ccc(NC(=O)/C=C/c2ccccc2)c1C
S=c1[nH]nc(COc2ccccc2)n1/N=C/c1cccc(Cl)c1Cl
Cc1ccc(CNC(=O)CCS(=O)(=O)c2cc(Br)cc3c2N(C(=O)C2CC2)CC3)o1
Cc1cccc(NS(=O)(=O)c2ccc(C(C)(C)C)cc2)n1
COc1cc2oc3ccccc3c2cc1N(CC(=O)N(C)C)S(=O)(=O)c1ccccc1

Potency, inconclusive:
O=C(CNC(=O)c1cccc(F)c1)N/N=C/c1cc(Br)ccc1OC(=O)/C=C/c1ccco1 35.5 µM [inhibitor, partial curve]
CN(C)C(=O)/C(=C/c1ccc(-c2cccc([N+](=O)[O-])c2)o1)NC(=O)c1ccccc1 10 µM [inhibitor, partial curve]
CCCCn1c2ccccc2c2nnc(SCC(=O)NC3=NN=C(c4ccccc4)CS3)nc21 25.1 µM [inhibitor, partial curve]
O=S1(=O)C=C(Oc2ccc(F)cc2)c2ccccc21 11.2 µM [inhibitor, partial curve]
CN1C=C/C(=C\c2cc[n+](C)c3ccccc23)c2ccccc21 31.6 µM [inhibitor, partial curve]
COc1ccc(S(=O)(=O)Nc2c(C)n(C)n(-c3ccccc3)c2=O)cc1 100 µM [inhibitor, partial curve, poor fit]
O=C(c1cc2ccccc2o1)N1CCN(c2ccccn2)CC1 3.55 µM [inhibitor, full curve, poor fit]
COC(=O)Cn1cc(S(=O)(=O)NCc2ccc(C)cc2)c2cc([N+](=O)[O-])ccc21 50.1 µM [inhibitor, single point]
Oc1c(C=Nc2cccc3cccnc23)sc2ccccc12 28.2 µM [inhibitor, single point]
COc1cccc(NC(=O)c2ccccc2-c2nc(-c3cccc(C)c3)no2)c1 15.8 µM [inhibitor, partial curve]
O=C(NC1CCCCCCC1)c1cc(COc2ccc3ncccc3c2)on1 50.1 µM [inhibitor, single point]
COC(=O)c1ccc(CSc2nc3c([nH]c4ccccc43)c(=O)n2-c2ccc(Cl)cc2)o1 8.91 µM [inhibitor, partial curve]
CN1C(=O)/C(=C/c2cn(CC(=O)N3CCCCC3)c3ccccc23)c2ccccc21 17.8 µM [inhibitor, partial curve]
CCCCNc1nc2c(c(=O)n(Cc3ccc(Cl)cc3)c(=O)n2C)n1C 39.8 µM [inhibitor, partial curve]
Cc1ccc(-n2nc3c(=O)n(C(C)C(=O)NCCC4=CCCCC4)nc(C)c3c2C)cc1 (centres undefined) 28.2 µM [inhibitor, partial curve]
COc1ccc(CN2CCN(Cc3cc(=O)oc4cc(C)ccc34)CC2)c(OC)c1OC 44.7 µM [inhibitor, partial curve]
O=C(CSc1n[nH]c(-c2cccs2)n1)N1CCN(S(=O)(=O)c2ccccc2)CC1 12.6 µM [inhibitor, partial curve]
COc1ccc(-n2cc(C(=O)NCc3ccccc3)c3ccccc3c2=O)cc1 35.5 µM [inhibitor, partial curve]
CC1Cc2ccccc2N1S(=O)(=O)c1cccc(C(=O)c2nccn2C)c1 (centres undefined) 25.1 µM [inhibitor, partial curve]
O=C(CO/N=C/c1ccc2c(c1)OCO2)Nc1cccc(Br)c1 50.1 µM [inhibitor, single point]
CN(C)c1ccc(NC(=O)CSc2nc(N)c(C(=O)Nc3ccc(N(C)C)cc3)s2)cc1 35.5 µM [inhibitor, partial curve]
CCOC(=O)C1CCCN(C(=O)c2ccc3nc(-c4ccccc4)c(-c4ccccc4)nc3c2)C1 (centres undefined) 39.8 µM [inhibitor, single point]
CC(=O)c1ccc(CCCCCCCCCC(=O)O)s1 28.2 µM [inhibitor, partial curve]
CN1CCN(CC(=O)n2c3c(c4ccccc42)CCCC3)CC1 22.4 µM [inhibitor, partial curve]
CSc1ncccc1C(=O)NCC1CCCCC1 28.2 µM [inhibitor, single point]
CCn1c(O)c(N=NC(=O)CNc2ccc(C)cc2)c2ccccc21 44.7 µM [inhibitor, partial curve]
O=[N+]([O-])c1cccc(Cl)c1NCCNS(=O)(=O)c1ccccc1 25.1 µM [inhibitor, partial curve]
COc1cc2c(cc1OC)/C(=C/c1ccc(Cl)cc1)C(=O)OC2 17.8 µM [inhibitor, partial curve]
CC(C)CCNC(=S)Nc1ccc2nc3n(c(=O)c2c1)CCCCC3 12.6 µM [inhibitor, partial curve]
Cc1ccnc(SCC(=O)NC2CCCCCC2)n1 22.4 µM [inhibitor, partial curve]
CCOCCC(=O)Nc1cc(Cl)ccc1OC 31.6 µM [inhibitor, single point]
